Data on 47 cell lines can be found in the supplement of paper PMC4967469.

Compound in the assay: COc1ncc(-c2ccc3nccc(-c4ccnnc4)c3c2)cc1NS(=O)(=O)c1ccc(F)cc1F [GSK2126458]
The experiment in a line: Viability of human cancer cell lines after 72 h of drug (GDSC screen). The note with it: top dose inferred. As for the experimental part: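 Human cancer cell lines in 384-well plates, medium with 10% serum, drug for 72 h over a 256-fold dose range (nine 2-fold or five 4-fold steps up to the top dose). Adherent lines were fixed and stained with the nucleic acid dye Syto60, suspension lines read with resazurin; signal relative to control wells, capped at 0 and 100%. One two-parameter sigmoid per drug and line, fitted in a mixed model over all curves with the slope shared within a line.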

IC50 is the fitted dose that halves viability relative to control wells, and lower means more sensitive; where the fit passes the top or lowest dose, that dose stands as a limit. The AUC spans the tested range (256-fold, ending at the top dose) of the same fit; the more sensitive the line, the further below 1. Any top dose called inferred comes from the curve model; the source does not state it. A value given as a limit tells only on which side of the number the result lay.

Consider “LB831-BLC (bladder, adherent, top dose 0.128 µM)”, for which the AUC came out at 0.86 and the 50% inhibitory concentration (IC50) is 110 nM.

In the case of “LB996-RCC (kidney, adherent, top dose 0.128 µM)”, the AUC is 0.932 and the half-inhibitory concentration (IC50) is above 128 nM.

On to “LB1047-RCC (kidney, adherent, top dose 0.128 µM)”, for which the AUC was determined as 0.605 and the IC50 was 16.1 nM.

Take “LB2241-RCC (kidney, adherent, top dose 0.128 µM)”: the AUC is 0.982 and the IC50 was above 128 nM.

In the case of “LB2518-MEL (melanoma, adherent, top dose 0.128 µM)”, the AUC was determined as 0.892 and the IC50 was above 128 nM.

For “LC4-1 (lymphoblastic leukaemia, suspension, top dose 0.128 µM)”, the AUC was determined as 0.354 and the IC50 worked out at 3.01 nM.

Take “LC-1-sq (lung squamous cell carcinoma, adherent, top dose 0.128 µM)”: the AUC turned out to be 0.533 and the 50% inhibitory concentration (IC50) turned out to be 9.98 nM.

Turning to “LC-2-ad (lung adenocarcinoma, adherent, top dose 0.128 µM)”, the AUC turned out to be 0.53 and the half-inhibitory concentration (IC50) is 9.7 nM.

Consider “LCLC-97TM1 (large cell lung carcinoma, adherent, top dose 0.128 µM)”, for which the AUC was 0.484 and the IC50 stood at 7.19 nM.

Turning to “LCLC-103H (large cell lung carcinoma, adherent, top dose 0.128 µM)”, the AUC was determined as 0.722 and the IC50 stood at 31.7 nM.

Regarding “LK-2 (lung squamous cell carcinoma, adherent, top dose 0.128 µM)”, the AUC was found to be 0.882 and the IC50 is 123 nM.

For the cell line “LN-18 (glioma, adherent, top dose 0.128 µM)”, the AUC stood at 0.967 and the 50% inhibitory concentration (IC50) is above 128 nM.

Regarding “LN-229 (glioma, adherent, top dose 0.128 µM)”, the AUC is 0.951 and the IC50 is above 128 nM.

Take “LN-405 (glioma, adherent, top dose 0.128 µM)”: the AUC was 0.642 and the IC50 was found to be 22 nM.

Take “LNCaP-Clone-FGC (prostate, adherent, top dose 0.128 µM)”: the AUC stood at 0.61 and the IC50 was 16.8 nM.

For the cell line “LNZTA3WT4 (glioma, adherent, top dose 0.128 µM)”, the AUC was found to be 0.856 and the half-inhibitory concentration (IC50) came out at 100 nM.

As to “LOU-NH91 (lung squamous cell carcinoma, adherent, top dose 0.128 µM)”, the AUC stood at 0.957 and the half-maximal inhibitory concentration (IC50) was above 128 nM.

As to “LOUCY (T-cell lymphoblastic leukaemia, suspension, top dose 1.024 µM)”, the AUC worked out at 0.211 and the IC50 worked out at 11.2 nM.

In the case of “LOXIMVI (melanoma, semi-adherent, top dose 0.128 µM)”, the AUC was found to be 0.782 and the IC50 stood at 47.6 nM.

On to “LP-1 (myeloma, suspension, top dose 0.128 µM)”, for which the AUC came to 0.448 and the IC50 was determined as 5.94 nM.

Regarding “LS-123 (large intestine, adherent, top dose 0.128 µM)”, the AUC was determined as 0.672 and the IC50 came out at 28.5 nM.

In the case of “LS-180 (large intestine, adherent, top dose 0.128 µM)”, the AUC was determined as 0.829 and the IC50 is 95.3 nM.

“LS-411N (large intestine, adherent, top dose 1.024 µM)”: the AUC worked out at 0.373 and the IC50 turned out to be 26.5 nM.

As for “LS-513 (large intestine, adherent, top dose 1.024 µM)”, the AUC came out at 0.591 and the IC50 was determined as 115 nM.

“LS-1034 (large intestine, adherent, top dose 0.128 µM)”: the AUC came to 0.715 and the half-inhibitory concentration (IC50) worked out at 34.8 nM.

As to “LU-65 (large cell lung carcinoma, suspension, top dose 0.128 µM)”, the AUC stood at 0.535 and the IC50 came out at 10.1 nM.

Turning to “LU-99A (large cell lung carcinoma, adherent, top dose 0.128 µM)”, the AUC came out at 0.924 and the concentration for half-maximal inhibition (IC50) was above 128 nM.

On to “LU-134-A (small cell lung carcinoma, suspension, top dose 0.128 µM)”, for which the AUC is 0.81 and the half-inhibitory concentration (IC50) amounted to 72.6 nM.

Take “LU-135 (small cell lung carcinoma, suspension, top dose 0.128 µM)”: the AUC came to 0.647 and the 50% inhibitory concentration (IC50) amounted to 18.9 nM.

As for “LU-139 (small cell lung carcinoma, suspension, top dose 0.128 µM)”, the AUC was found to be 0.776 and the IC50 worked out at 66.2 nM.

“LU-165 (small cell lung carcinoma, suspension, top dose 0.128 µM)”: the AUC came out at 0.844 and the IC50 was found to be 109 nM.

Regarding “LXF-289 (lung adenocarcinoma, adherent, top dose 0.128 µM)”, the AUC turned out to be 0.861 and the IC50 turned out to be 105 nM.

In the case of “LoVo (large intestine, adherent, top dose 0.128 µM)”, the AUC was 0.899 and the IC50 was above 128 nM.

With “M14 (melanoma, adherent, top dose 0.128 µM)”, the AUC is 0.987 and the 50% inhibitory concentration (IC50) is above 128 nM.

Turning to “M059J (glioma, adherent, top dose 0.128 µM)”, the AUC stood at 0.74 and the IC50 amounted to 41.5 nM.

On to “MC116 (B-cell lymphoma, suspension, top dose 0.128 µM)”, for which the AUC was determined as 0.431 and the 50% inhibitory concentration (IC50) stood at 5.44 nM.

With “MC-CAR (haematopoietic neoplasm, suspension, top dose 0.128 µM)”, the AUC stood at 0.404 and the concentration for half-maximal inhibition (IC50) turned out to be 4.5 nM.

Consider “MC-IXC (neuroblastoma, adherent, top dose 0.128 µM)”, for which the AUC was found to be 0.794 and the IC50 amounted to 42.5 nM.

For the cell line “MCF7 (breast, adherent, top dose 0.128 µM)”, the AUC is 0.986 and the IC50 is above 128 nM.

Turning to “MDA-MB-157 (breast, adherent, top dose 0.128 µM)”, the AUC turned out to be 0.952 and the 50% inhibitory concentration (IC50) is above 128 nM.

Regarding “MDA-MB-175-VII (breast, adherent, top dose 0.128 µM)”, the AUC came to 0.538 and the 50% inhibitory concentration (IC50) is 10.3 nM.

For “MDA-MB-231 (breast, adherent, top dose 0.128 µM)”, the AUC came to 0.924 and the half-maximal inhibitory concentration (IC50) is above 128 nM.

For “MDA-MB-330 (breast, adherent, top dose 0.128 µM)”, the AUC stood at 0.637 and the IC50 was 20.3 nM.

Regarding “MDA-MB-361 (breast, adherent, top dose 0.128 µM)”, the AUC is 0.423 and the IC50 came to 4.92 nM.

On to “MDA-MB-415 (breast, adherent, top dose 0.128 µM)”, for which the AUC worked out at 0.894 and the 50% inhibitory concentration (IC50) is above 128 nM.

Regarding “MDA-MB-436 (breast, adherent, top dose 0.128 µM)”, the AUC turned out to be 0.943 and the IC50 was above 128 nM.

For “MDA-MB-453 (breast, adherent, top dose 1.024 µM)”, the AUC was determined as 0.157 and the half-maximal inhibitory concentration (IC50) stood at 4.85 nM.

Broadly, the IC50 is the concentration that inhibits the measured activity by half.
